PMC5245780 (Journal of molecular recognition : JMR, 2016)

Molecular target: Hax1-6xHis (human Hax1 isoform 1, full length) (human, UniProt O00165-1)
Experiment: co-IP

- binding result: binds
B1: 6xHis-SUMO-Grb7-RAPH (domain or fragment)
chain: not shown
